Consider 29 sequences from PMC5892938.

The other results are listed elsewhere or left out. Construct or isoform of the protein are uncertain.

For the experiment, the target named is GST-SBP-ILF3 (Homo sapiens) (UniProt Q12906). As to the kind of experiment: targeted RNA Bind-n-Seq. Particulars: RBNS binding buffer: 25 mM Tris pH 7.5, 150 mM KCl, 3 mM MgCl2, 0.1% Tween, 0.5 mg/mL BSA, 1 mM DTT; 27 nM protein, 750 pM RNA pool; temperature not stated; high values mean tight binding; sequences stand for … in GGGUAAAAGCGAGGUGAA…CGGGACAAGUAUUAUGGG
On to “GGUGUUGGUGUUGGACCCUAACACCAGCGC [gtspaired]”, for which the binding signal (log2 fold change) is -0.656.

For “GUUGUGUGUGUUGGUGCCUAACACACGCGA [gtspaired]”, the binding signal (log2 fold change) is -0.792.

As to “GUGUGGUGUGUUGGUACCUAACACACUAUA [gtspaired]”, the binding signal (log2 fold change) was -0.366.

Take “GUGGUUGGUGUUGGCAUCUAACACCGAUCA [gtspaired]”: the binding signal (log2 fold change) is -0.698.

As to “UUUUUUUUUUGAGACGGAGGCCGUUUCCUA [tttttgagapaired]”, the binding signal (log2 fold change) stood at 0.475.

Consider “UUUUUUUUUUGAGAGCGAAACGCUCUCCUA [tttttgagapaired]”, for which the binding signal (log2 fold change) is -0.00885.

In the case of “UUUUUUUUUUGAGAUCGGGGCGAUCUCCAG [tttttgagapaired]”, the binding signal (log2 fold change) was 0.234.

In the case of “UUUUUUUUUUGAGAGGGAUGCCCUCUUCUA [tttttgagapaired]”, the binding signal (log2 fold change) turned out to be 0.438.

Turning to “UUUUUUUUUUGAGAUGGGGACUAUCUCCGG [tttttgagapaired]”, the binding signal (log2 fold change) amounted to 0.603.

For “UUUUUUUUUUGAGACUGUGUCAGUUUCCUG [tttttgagapaired]”, the binding signal (log2 fold change) is 1.03.

Consider “UUUUUUUUUUGAGACUGGGUCAGUUUCCUG [tttttgagapaired]”, for which the binding signal (log2 fold change) is 0.959.

In the case of “UUCCUCUCUCCUCCGUCGGAGGGGGGAGGA [ctspaired]”, the binding signal (log2 fold change) is -0.647.

For the sequence “GGUGUGUGUGUUGGUGUCUAACACAUAUAC [gtspaired]”, the binding signal (log2 fold change) was -0.826.

On to “UUUUUUUUUUGAGACUGUAGCAGUCUCCUG [tttttgagapaired]”, for which the binding signal (log2 fold change) came out at 0.71.

For “UUUUUUUUUUGAGAGCGUACCGUUCUCCUA [tttttgagapaired]”, the binding signal (log2 fold change) is 0.274.

For “UUUUUUUUUUGAGAUCGGAGCGAUCUUCUA [tttttgagapaired]”, the binding signal (log2 fold change) came out at 0.317.

With “GUUGGUGGUGUUGGCACCUAACACCACCAG [gtspaired]”, the binding signal (log2 fold change) was 0.0729.

As to “UUUUUUUUUUGAGACCGCAUCGGUCUCCAG [tttttgagapaired]”, the binding signal (log2 fold change) stood at 0.25.

For the sequence “UUUUUUUUUUGAGACUGGAGCAGUCUUCUA [tttttgagapaired]”, the binding signal (log2 fold change) came out at 0.565.

As to “UUUUUUUUUUGAGACCGUGGCGGUCUCCAG [tttttgagapaired]”, the binding signal (log2 fold change) is 0.42.

On to “UUCUCUUCUCCUCCGCUGGAGGGGAAGGGA [ctspaired]”, for which the binding signal (log2 fold change) is -1.33.

Turning to “GUGUGGUGUGUUGGCCCCUAACACAUCACG [gtspaired]”, the binding signal (log2 fold change) was -0.231.

Consider “GUUGUGUGUGUUGGUGCCUAACACACGCAA [gtspaired]”, for which the binding signal (log2 fold change) is -0.0854.

For “UUUUUUUUUUGAGAGGGGCUCCCUCUCCAG [tttttgagapaired]”, the binding signal (log2 fold change) came out at 0.643.

Turning to “UUUUUUUUUUGAGAGUGAUGCACUCUCCUA [tttttgagapaired]”, the binding signal (log2 fold change) was determined as 0.0131.

With “GGUGGUGGUGUUGGAGUCUAACACCAUCGC [gtspaired]”, the binding signal (log2 fold change) is -0.59.

With “GGUUGUGGUGUUGGUCUCUAACACCGCAGC [gtspaired]”, the binding signal (log2 fold change) was -0.631.

Take “UUUUUUUUUUGAGAGCGUAACGUUCUCCUG [tttttgagapaired]”: the binding signal (log2 fold change) was 0.471.

As to “UUUUUUUUUUGAGACCGCUACGGUCUCCAG [tttttgagapaired]”, the binding signal (log2 fold change) is 0.271.
